In the supplement of paper PMC8728848:
Some of the results follow.

Experiments:
Assay in all cases: glycan array binding signal (z-score within array); higher = stronger binding
Details in all cases: glycan notation: IUPAC condensed, linker removed
[1] = molecular target: Gal(b1-4)GlcNAc(b1-3)Gal(b1-3)GlcNAc
Outline: (§1)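 Columns mapping to the same glycan were averaged after glycan names were converted to IUPAC-condensed notation. The data come from 3228 arrays in the Consortium for Functional Glycomics database, limited to those with an available protein sequence. Binding is reported as a within-array Z-score averaged across arrays of one protein sequence and across linkers.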

[2] = molecular target: Gal(b1-4)GlcNAc(b1-3)Gal(b1-4)Glc
Outline: as §1

[3] = molecular target: Gal(b1-4)GlcNAc(b1-3)Gal(b1-4)GlcNAc
Outline: as §1

[4] = molecular target: Gal(b1-4)GlcNAc(b1-3)Gal(b1-4)GlcNAc(b1-2)Man(a1-3)[Gal(b1-4)GlcNAc(b1-3)Gal(b1-4)GlcNAc(b1-2)Man(a1-6)]Man(b1-4)GlcNAc(b1-4)GlcNAc
Outline: as §1

[5] = molecular target: Gal(b1-4)GlcNAc(b1-3)Gal(b1-4)GlcNAc(b1-2)Man(a1-3)[Gal(b1-4)GlcNAc(b1-3)Gal(b1-4)GlcNAc(b1-2)Man(a1-6)]Man(b1-4)GlcNAc(b1-4)[Fuc(a1-6)]GlcNAc
Outline: as §1

[6] = molecular target: Gal(b1-4)GlcNAc(b1-3)Gal(b1-4)GlcNAc(b1-2)[Gal(b1-4)GlcNAc(b1-3)Gal(b1-4)GlcNAc(b1-6)]Man(a1-6)[Gal(b1-4)GlcNAc(b1-3)Gal(b1-4)GlcNAc(b1-2)Man(a1-3)]Man(b1-4)GlcNAc(b1-4)GlcNAc
Outline: as §1

[7] = molecular target: Gal(b1-4)GlcNAc(b1-3)Gal(b1-4)GlcNAc(b1-2)[Gal(b1-4)GlcNAc(b1-3)Gal(b1-4)GlcNAc(b1-6)]Man(a1-6)[Gal(b1-4)GlcNAc(b1-3)Gal(b1-4)GlcNAc(b1-2)Man(a1-3)]Man(b1-4)GlcNAc(b1-4)[Fuc(a1-6)]GlcNAc
Outline: as §1

[8] = molecular target: Gal(b1-4)GlcNAc(b1-3)Gal(b1-4)GlcNAc(b1-3)Gal(b1-4)GlcNAc
Outline: as §1

[9] = molecular target: Gal(b1-4)GlcNAc(b1-3)Gal(b1-4)GlcNAc(b1-3)Gal(b1-4)GlcNAc(b1-2)Man(a1-3)[Gal(b1-4)GlcNAc(b1-3)Gal(b1-4)GlcNAc(b1-3)Gal(b1-4)GlcNAc(b1-2)Man(a1-6)]Man(b1-4)GlcNAc(b1-4)GlcNAc
Outline: as §1

[10] = molecular target: Gal(b1-4)GlcNAc(b1-3)Gal(b1-4)GlcNAc(b1-3)Gal(b1-4)GlcNAc(b1-2)Man(a1-3)[Gal(b1-4)GlcNAc(b1-3)Gal(b1-4)GlcNAc(b1-3)Gal(b1-4)GlcNAc(b1-2)Man(a1-6)]Man(b1-4)GlcNAc(b1-4)[Fuc(a1-6)]GlcNAc
Outline: as §1

[11] = molecular target: Gal(b1-4)GlcNAc(b1-3)Gal(b1-4)GlcNAc(b1-3)Gal(b1-4)GlcNAc(b1-2)[Gal(b1-4)GlcNAc(b1-3)Gal(b1-4)GlcNAc(b1-3)Gal(b1-4)GlcNAc(b1-6)]Man(a1-6)[Gal(b1-4)GlcNAc(b1-3)Gal(b1-4)GlcNAc(b1-3)Gal(b1-4)GlcNAc(b1-2)Man(a1-3)]Man(b1-4)GlcNAc(b1-4)[Fuc(a1-6)]GlcNAc
Outline: as §1

[12] = molecular target: Gal(b1-4)GlcNAc(b1-3)Gal(b1-4)GlcNAc(b1-3)Gal(b1-4)GlcNAc(b1-3)Gal(b1-4)GlcNAc(b1-2)Man(a1-3)[Gal(b1-4)GlcNAc(b1-3)Gal(b1-4)GlcNAc(b1-3)Gal(b1-4)GlcNAc(b1-3)Gal(b1-4)GlcNAc(b1-2)Man(a1-6)]Man(b1-4)GlcNAc(b1-4)GlcNAc
Outline: as §1

[13] = molecular target: Gal(b1-4)GlcNAc(b1-3)Gal(b1-4)GlcNAc(b1-3)Gal(b1-4)GlcNAc(b1-3)Gal(b1-4)GlcNAc(b1-2)Man(a1-3)[Gal(b1-4)GlcNAc(b1-3)Gal(b1-4)GlcNAc(b1-3)Gal(b1-4)GlcNAc(b1-3)Gal(b1-4)GlcNAc(b1-2)Man(a1-6)]Man(b1-4)GlcNAc(b1-4)[Fuc(a1-6)]GlcNAc
Outline: as §1

[14] = molecular target: Gal(b1-4)GlcNAc(b1-3)Gal(b1-4)GlcNAc(b1-3)Gal(b1-4)GlcNAc(b1-3)Gal(b1-4)GlcNAc(b1-2)[Gal(b1-4)GlcNAc(b1-3)Gal(b1-4)GlcNAc(b1-3)Gal(b1-4)GlcNAc(b1-3)Gal(b1-4)GlcNAc(b1-6)]Man(a1-6)[Gal(b1-4)GlcNAc(b1-3)Gal(b1-4)GlcNAc(b1-3)Gal(b1-4)GlcNAc(b1-3)Gal(b1-4)GlcNAc(b1-2)Man(a1-3)]Man(b1-4)GlcNAc(b1-4)[Fuc(a1-6)]GlcNAc
Outline: as §1

[15] = molecular target: Gal(b1-4)GlcNAc(b1-3)Gal(b1-4)GlcNAc(b1-3)Gal(b1-4)GlcNAc(b1-3)Gal(b1-4)GlcNAc(b1-3)Gal(b1-4)GlcNAc(b1-2)Man(a1-3)[Gal(b1-4)GlcNAc(b1-3)Gal(b1-4)GlcNAc(b1-3)Gal(b1-4)GlcNAc(b1-3)Gal(b1-4)GlcNAc(b1-3)Gal(b1-4)GlcNAc(b1-2)Man(a1-6)]Man(b1-4)GlcNAc(b1-4)GlcNAc
Outline: as §1

[16] = molecular target: Gal(b1-4)GlcNAc(b1-3)Gal(b1-4)GlcNAc(b1-3)Gal(b1-4)GlcNAc(b1-3)Gal(b1-4)GlcNAc(b1-3)Gal(b1-4)GlcNAc(b1-2)Man(a1-3)[Gal(b1-4)GlcNAc(b1-3)Gal(b1-4)GlcNAc(b1-3)Gal(b1-4)GlcNAc(b1-3)Gal(b1-4)GlcNAc(b1-3)Gal(b1-4)GlcNAc(b1-2)Man(a1-6)]Man(b1-4)GlcNAc(b1-4)[Fuc(a1-6)]GlcNAc
Outline: as §1

[17] = molecular target: Gal(b1-4)GlcNAc(b1-3)Gal(b1-4)GlcNAc(b1-3)Gal(b1-4)GlcNAc(b1-3)Gal(b1-4)GlcNAc(b1-3)Gal(b1-4)GlcNAc(b1-2)[Gal(b1-4)GlcNAc(b1-3)Gal(b1-4)GlcNAc(b1-3)Gal(b1-4)GlcNAc(b1-3)Gal(b1-4)GlcNAc(b1-3)Gal(b1-4)GlcNAc(b1-6)]Man(a1-6)[Gal(b1-4)GlcNAc(b1-3)Gal(b1-4)GlcNAc(b1-3)Gal(b1-4)GlcNAc(b1-3)Gal(b1-4)GlcNAc(b1-3)Gal(b1-4)GlcNAc(b1-2)Man(a1-3)]Man(b1-4)GlcNAc(b1-4)[Fuc(a1-6)]GlcNAc
Outline: as §1

[18] = molecular target: Gal(b1-4)GlcNAc(b1-3)Gal(b1-4)GlcNAc(b1-3)Gal(b1-4)GlcNAc(b1-3)Gal(b1-4)GlcNAc(b1-3)Gal(b1-4)GlcNAc(b1-3)Gal(b1-4)GlcNAc(b1-2)Man(a1-3)[Gal(b1-4)GlcNAc(b1-3)Gal(b1-4)GlcNAc(b1-3)Gal(b1-4)GlcNAc(b1-3)Gal(b1-4)GlcNAc(b1-3)Gal(b1-4)GlcNAc(b1-3)Gal(b1-4)GlcNAc(b1-2)Man(a1-6)]Man(b1-4)GlcNAc(b1-4)GlcNAc
Outline: as §1

[19] = molecular target: Gal(b1-4)GlcNAc(b1-3)Gal(b1-4)GlcNAc(b1-3)GalNAc
Outline: as §1

B1: DC-Sign (Homo sapiens), Q9NNX6 (protein)
chain: MSDSKEPRLQQLGLLEEEQLRGLGFRQTRGYKSLAGCLGHGPLVLQLLSFTLLAGLLVQVSKVPSSISQEQSRQDAIYQNLTQLKAAVGELSEKSKLQEIYQELTQLKAAVGELPEKSKLQEIYQELTRLKAAVGELPEKSKLQEIYQELTWLKAAVGELPEKSKMQEIYQELTRLKAAVGELPEKSKQQEIYQELTRLKAAVGELPEKSKQQEIYQELTRLKAAVGELPEKSKQQEIYQELTQLKAAVERLCHPCPWEWTFFQGNCYFMSNSQRNWHDSITACKEVGAQLVVIKSAEEQNFLQLQSSRSNRFTWMGLSDLNQEGTWQWVDGSPLLPSFKQYWNRGEPNNVGEEDCAEFSGNGWNDDKCNLAKFWICKKSAASCSRDEEQFLSPAPATPNPPPA
B1 was tested, and the “glycan array binding signal (z-score)” value [1] was -0.195, the “glycan array binding signal (z-score)” value [2] was -0.169 and the “glycan array binding signal (z-score)” value [3] was -0.184. For the same binder, the “glycan array binding signal (z-score)” value [4] was -0.106, the “glycan array binding signal (z-score)” value [5] was -0.133 and the “glycan array binding signal (z-score)” value [6] was 0.026. For the same binder, the “glycan array binding signal (z-score)” value [7] was -0.107, the “glycan array binding signal (z-score)” value [8] was -0.187 and the “glycan array binding signal (z-score)” value [9] was -0.091. The “glycan array binding signal (z-score)” value [10] was -0.137, the “glycan array binding signal (z-score)” value [11] was -0.094 and the “glycan array binding signal (z-score)” value [12] was -0.128. For the same binder, the “glycan array binding signal (z-score)” value [13] was -0.134, the “glycan array binding signal (z-score)” value [14] was -0.129 and the “glycan array binding signal (z-score)” value [15] was -0.114. For the same binder, the “glycan array binding signal (z-score)” value [16] was -0.077, the “glycan array binding signal (z-score)” value [17] was 0.536 and the “glycan array binding signal (z-score)” value [18] was 0.26. For the same binder, the “glycan array binding signal (z-score)” value [19] was -0.098.
